Assay results taken from the RNAGym collection of RNA variant scans (doi:10.1093/nar/gkz1192).
Read counts are not given, so values of variants with three or more changes are uncertain.

B1: CPEB3 Ribozyme (parent)
chain: UAACAGGGGGCCACAGCAGAAGCGUUCACGUCGCAGCCCCUGUCAGAUUCUGGUGAAUCUGCGAAUUCUGCUGUAUAUCUC

Variants of: B1
Assay: self-cleavage, relative activity (ratio to wild type); higher = more cleavage; in vitro, sequencing
Method in brief: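 Relative activity compares each variant's cleaved/total read fraction with that of the unmutated ribozyme. To get these fractions, barcoded CPEB3 ribozyme libraries from rounds of error-prone PCR were transcribed with T7 RNA polymerase for 5 hours at 37°C and then given 15 min of DNase I treatment before EDTA was added. The RNAs were reverse transcribed with template switching and sequenced on Illumina, and DNA sequencing linked barcodes to variants. A minimum of 5 reads applied, and three batches were averaged.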

Variant | self-cleavage
G6A A28U A65G U72C G73A | 0.07
G6A A28U U72A | 0.17
G6A A35G U49C | 0.23
G6A A35U C38U U43C U60A | 0.06
G6A A47G U49A A56C U74C A75G | 0.05
G6A A56G U66C | 0.45
G6A A56G U66C U72C | 0.07
G6A A57G U60G | 0.07
G6A A57G U69C | 0.07
G6A A57U A64U U72C | 0.13
G6A A64U C81U | 0.37
G6A A75U U80C | 0.44
G6A C11A A13U A20U G33A U41C U49C | 0.04
G6A C11A U26C A28G U31A U51C U72C | 0
G6A C11G A15G U51C A56G U76G U80C | 0.67
G6A C12A A15G A45G | 0.07
G6A C12G U25C A47G A64U | 0.07
G6A C12U A15G A45G U72C | 0.28
G6A C12U A15G U51C U60A A64U | 0.04
G6A C12U U67C | 0.08
G6A C14A U48C U51A A64U U80A | 0.05
G6A C23U G61A | 0.19
G6A C27U U31C A45G U60A C62U | 0.04
G6A C34G A35G U66C U72C | 0.18

Variant | self-cleavage
G6A C37U U51C | 0.21
G6A C40U G42A U48C | 0.06
G6A C40U U51C A56G | 0.09
G6A G9A A56G U74C A75G | 0.07
G6A G9A C23U A35G U58C G70A U74G | 0.02
G6A G9A G10C G46A A47U U54A U69C | 0.16
G6A G9U U51C U67C | 0.1
G6A G9U U60C C62U U76C C79A | 0.04
G6A G10A A45U A56G | 0.34
G6A G10A A45U U48A U72A | 0.07
G6A G10C A20U U26C C29U G36C A75C | 0.05
G6A G16A A45G | 0.34
G6A G16A C39U U60C U67C A75G | 0.04
G6A G19A G46A U69C | 0.27
G6A G19U A20G U41A | 0.24
G6A G24A U76C | 0.06
G6A G30A U72G | 0.09
G6A G30C A47G U67A U76C C79A | 0.04
G6A G30C U66C A75G | 0.09
G6A G46A A47U U54C | 0.23
G6A G53C U60A G61U | 0.11
G6A G53U U60A | 0.08
G6A G73U A77C | 0.38
G6A U25C C32U | 0.39

Variant | self-cleavage
G6A U25C U26A U48C U69C | 0.07
G6A U25C U43G U48C | 0.21
G6A U25C U48A U49C | 0.07
G6A U26A G52A A56U U74C A75G | 0.07
G6A U26A U60A C62U | 0.05
G6A U26C A28G G55U A57G | 0.23
G6A U26C A56G U60C U72A | 0.52
G6A U26C C40A U48C | 0.06
G6A U26C C40A U72C U74A | 0.34
G6A U26C U31C U51G | 0.27
G6A U26C U41A | 0.25
G6A U26C U43A A56U | 0.07
G6A U31A A56G | 0.12
G6A U31A U43A U51C | 0.29
G6A U31C A45G A64G A65G U66C U80C | 0
G6A U31C C32U U49C | 0.17
G6A U31C C37U | 0.19
G6A U31C C40U | 0.35
G6A U31C U49C U51A U72C | 0.17
G6A U41A A45U A64U U72C | 0.06
G6A U41C U43G U69A U72A | 0.04
G6A U43A A45G A57U C79A | 0.05
G6A U43C A47G U58C | 0.11
G6A U43C G52A | 0.14

Variant | self-cleavage
G6A U43C U54A A56G | 0.25
G6A U48G A65G U76A U78A | 0.04
G6A U49C A64C | 0.15
G6A U49G U54C | 0.17
G6A U51C G52C | 0.4
G6A U51G A64G U69A U78C | 0.06
G6A U54C U67A U74A | 0.11
G6A U58C U60C A77G | 0.05
G6A U60C U69C | 0.17
G6A U66C A77G | 0.2
G6A U67C U72A | 0.14
G6A U69C U72C | 0.14
G6C A13G A28G U67C | 0.31
G6C A15G U31A A64U U72G | 0.1
G6C A18G A56U U80C | 0.36
G6C A18G U66C U67C U69C U74C U80C | 0
G6C A20G U26C U43G U51C A57G A77G | 0
G6C A21G U72A | 0.07
G6C A28G U31A U41G U67C U74A | 0.2
G6C C14G A28G U31A G73A U78C | 0.44
G6C G19U G33A G36A C38U U54A U60A | 0.05
G6C U26A U48C U67A | 0.12
G6C U26C U31C C40U C44A U48C | 0.26
G6C U31A U41G A57G U67C | 0.12

Variant | self-cleavage
G6C U51C A56G G61A | 0.08
G6C U54A U69A | 0.22
G6C U67C U80C | 0.26
G6U A13C A15U U43C U51C | 0.09
G6U A13G G33U A47G | 0.22
G6U A15G U25C | 0.07
G6U A18C U43C A65G | 0.08
G6U A18G U48C U80A | 0.41
G6U A18G U49A G61A U69C | 0.08
G6U A18U C32U | 0.19
G6U A20G A21G | 0.59
G6U A20G A35U | 0.39
G6U A20G U26C C40U A64U | 0.05
G6U A21G U72C | 0.26
G6U A28G G70A U76A | 0.12
G6U A35G U41A A56G | 0.33
G6U A45G G63A A65G U69A | 0.07
G6U A56G U78C | 0.21
G6U C11U A13U A20U U58C U67C | 0.03
G6U C12A U26A U51A A64G U72C | 0.08
G6U C14U A21G | 0.11
G6U C14U U43C A45G A56G U69C G73A | 0.04
G6U C17U A21G C50A | 0.34
G6U C23A G53A | 0.25

Variant | self-cleavage
G6U C29A U43A A64G U74C U78A | 0.37
G6U C32U A45G U48C A77U | 0.15
G6U C32U A64G | 0.2
G6U G8A A18G A45G A47G | 0.2
G6U G8A C37U A45G U54C U74G | 0.07
G6U G8A G24A A57G U69A U72C U80C | 0.08
G6U G8U G42A A45U A56U A64U | 0.1
G6U G9A A13U A21G A45G A64G | 0.05
G6U G9A A45U U80C | 0.26
G6U G9A U25C U41A U58C U69C | 0.05
G6U G16A A21G | 0.36
G6U G24A U26C A45G U80C | 0.1
G6U G33A A64G A75C | 0.05
G6U U25A U43C | 0.2
G6U U25C A28G U54A A56G | 0.07
G6U U26A U31G U78C | 0.13
G6U U26C C40U U72A U74G | 0.08
G6U U26C U41C U49A U51A U72C | 0.29
G6U U31C A57G | 0.26
G6U U43C G52C U54A A56G | 0.24
G6U U43C G73C U74A | 0.34
G6U U54C A64G A75G | 0.13
G6U U54C U60C | 0.05
G7A A13G A15G U26C | 0.08

Variant | self-cleavage
G7A A13G A20G U48C A65G | 0.08
G7A A13G A45U | 0.27
G7A A13G C23A C29U | 0.11
G7A A13G G33C U78C | 0.2
G7A A13G U41A | 0.07
G7A A13U A15G U25C A57G U78C U80A | 0.14
G7A A13U U25C U31C U69C U76C | 0.04
G7A A13U U74A | 0.08
G7A A15C G19U A35U U49C U54A U76C | 0.04
G7A A15G A18U C38A A56G | 0.25
G7A A15G A35G G36A U51A | 0.09
G7A A15G G33A U41A A57G U60C | 0.04
G7A A15G U49C G63U | 0.04
G7A A18G A21G A65G U69A | 0.2
G7A A18G A28G A75G | 0.23
G7A A18G A28G G33A U60C U74C | 0.14
G7A A18G A65G | 0.16
G7A A18G C23U C34U U49C | 0.35
G7A A18G G30U | 0.06
G7A A18G U31A | 0.06
G7A A18U A75G | 0.03
G7A A18U G24U U58A A64G | 0.05
G7A A20G U25C U31C U54A A77G | 0.12
